The source gives no read counts; variants with many changes may rest on few reads.
B1: LINE1-full (parent)
chain: UACGUAGGUGGUUUUCCCCUGAUAGUGCUAAGGGGGCCUGGAAGUUUGGACUGGGCAGAGCUCAACACAGCGUGGCAAAGUGGCUGUGGCUAGACUGCCUCUCUGGAUUCCUCGUCACUCAGCAGGGCAUCUCUGAGAGAAAUGCC

Variants of: B1
Experiment: self-cleavage, relative activity (ratio to wild type); higher = more cleavage; in vitro, sequencing; the parent is a self-cleaving ribozyme
With U39C U96C A121U the self-cleavage was 0.
Variant G40A A129G U143G has a self-cleavage of 1.05.
Work on U39C U85C A94G yielded a self-cleavage of 0.
With C37U U45C U102A the self-cleavage was 1.44.
U39C A64U A79G gave a self-cleavage of 0.45.
Work on C38U A94G C133U yielded a self-cleavage of 0.46.
Work on C37U U47C A138G yielded a self-cleavage of 1.82.
In the case of G40U A59G A92U A138G, the self-cleavage is reported as 0.
Variant U39C U62C A136G has a self-cleavage of 0.04.
Work on U39A U112A A140G yielded a self-cleavage of 1.59.
In the case of U39A A92U A117U G126A, the self-cleavage is reported as 0.81.
With U39C U108C U134C the self-cleavage was 0.99.
C37U U100C U108C A117G A138U showed a self-cleavage of 0.54.
U39A U52C A67U showed a self-cleavage of 0.28.
Work on G35C A107G U143C yielded a self-cleavage of 1.18.
Variant G35U U39A A64G A65G has a self-cleavage of 0.17.
U39C C56U U100A showed a self-cleavage of 0.02.
In the case of G36A C37U U39A A59G A136G, the self-cleavage is reported as 0.07.
U39A U73A U104A A142G gave a self-cleavage of 0.57.
Variant U39C U115C A124U A141G has a self-cleavage of 2.78.
In the case of U39C U73A U115C A142U U143C, the self-cleavage is reported as 0.33.
Work on U39C U47A A94G G105A U115C yielded a self-cleavage of 0.
Variant U39G A65G C90A has a self-cleavage of 0.05.
Work on G40A A43G C63U A117G yielded a self-cleavage of 0.31.
U39C G44A U46C A59U U62C showed a self-cleavage of 0.18.
For U39C G48A U52A A77G U130C, the self-cleavage was 2.3.
With U39A U102C A121G the self-cleavage was 0.84.
A42C G88A A107G U134C gave a self-cleavage of 0.07.
With G36A U47C C98G U104A the self-cleavage was 0.07.
C37A A57G A107C A140G gave a self-cleavage of 2.11.
G40A A141G U143A gave a self-cleavage of 0.48.
U39C U102A G106A A124U showed a self-cleavage of 1.65.
With C38U U108C A117U A141G the self-cleavage was 1.54.
In the case of G36A U81G C90U, the self-cleavage is reported as 0.06.
G35U U96A A138G gave a self-cleavage of 0.05.
U39A A50G A136G showed a self-cleavage of 1.19.
U39A U62C A67U G72A U104C U108C C128U gave a self-cleavage of 0.01.
Work on C37A U39C A64U U73A U119A U134C yielded a self-cleavage of 0.39.
Variant U39C U47A U62A U100C A142G has a self-cleavage of 0.
Work on U39A A42G U73C U104A yielded a self-cleavage of 2.04.
U39A A69G A129G gave a self-cleavage of 0.19.
U39C A77U U109A U115C A129G A140G showed a self-cleavage of 0.23.
Variant U39C A117U U130C has a self-cleavage of 2.01.
U39A U85G U109A C128A gave a self-cleavage of 0.12.
For U39C A42U A121G, the self-cleavage was 0.79.
For G40A A129G A138U A140G, the self-cleavage was 0.8.
Variant U39C A107G A117C has a self-cleavage of 1.15.
U39C U85C A92C C118A gave a self-cleavage of 0.21.
In the case of U39A A57U A64U, the self-cleavage is reported as 0.08.
G40U U46C A64U C76U A142G showed a self-cleavage of 0.67.
In the case of U39C A79G C99U A121G U130C, the self-cleavage is reported as 0.72.
Work on U39C A43G A77U U132C A141G yielded a self-cleavage of 1.02.
With U39A A79G A142U C145U the self-cleavage was 1.53.
U39A U112C C120A A121G A138G gave a self-cleavage of 2.17.
In the case of C37U A69G A121G, the self-cleavage is reported as 0.75.
Variant G36A A94U U100C U143C has a self-cleavage of 0.34.
With G41A A43G A67G the self-cleavage was 0.32.
Work on G36A A67G U91C yielded a self-cleavage of 0.24.
Variant U39A C66U A78G has a self-cleavage of 0.06.
In the case of G36C A64U A124G, the self-cleavage is reported as 0.12.
G40U A69G U81C gave a self-cleavage of 1.15.
G40U U62C U102C showed a self-cleavage of 0.04.
In the case of C38U A65G U73C A142G, the self-cleavage is reported as 0.04.
Work on G36A A57G A65G A117G yielded a self-cleavage of 0.06.
Work on U39G G105A U109C C110U A129G C145G yielded a self-cleavage of 2.06.
Work on U39C U96C U119C A124U yielded a self-cleavage of 0.
With U39C U62C A69U A92G U108C G125U the self-cleavage was 0.
U39C U52A A69U G144A showed a self-cleavage of 0.
Work on U39A U62C U81A U130C yielded a self-cleavage of 0.16.
In the case of U39A A69U U87C A107U, the self-cleavage is reported as 0.02.
With C37U U85G U96C the self-cleavage was 0.07.
C37U A69C U115A U143G showed a self-cleavage of 0.08.
With U39C U62C A64U G74A A77G the self-cleavage was 0.01.
With U39C U45C U132C A142G the self-cleavage was 1.02.
Variant C38G G88A A121G has a self-cleavage of 0.3.
Work on U39A A79U U96A U109C yielded a self-cleavage of 0.19.
Work on G36C G41U U47C U119C yielded a self-cleavage of 0.84.
In the case of U39A A43G U73C, the self-cleavage is reported as 1.11.
With C38U G86C A92G the self-cleavage was 0.08.
For G36A U62C U91A, the self-cleavage was 0.02.
In the case of G41C A59G A77G U81A U130C, the self-cleavage is reported as 0.
G36U C76U A79G G93A A121G gave a self-cleavage of 0.04.
In the case of U39A U62C A64U G114A U132A, the self-cleavage is reported as 0.03.
With G40U A121C A142G the self-cleavage was 1.56.

Source: the RNAGym collection of RNA variant scans (doi:10.7554/elife.90254)
